The values that follow come from patent US11136291B2, “Antifungal compounds and uses thereof” (Dana-Farber Cancer Institute, Inc., priority 2016, dated 2021).

Read-outs that look alike come from different tables or passages of the source.

For the test, the system named is C. glabrata CgPDR1 wild-type and CgPDR1^L280F strains. How it is done: iKIX1—ketoconazole drug interactions were assessed by a broth microdilution checkerboard assay as described in EUCAST document 7.1 (see, e.g., EUCAST definitive document EDef 7.1: method for the determination of broth dilution MICs of antifungal agents for fermentative yeasts. Clin Microbiol Infect. 2008; 14(4):398-405). […] Combination indices were calculated as follows: CI=(CIKIX1/ICIKIX1)+(CAZ/ICAZ); where ICIKIX1 and ICAZ are concentrations of iKIX1 alone or ketoconazole alone, respectively, that result in greater than 50% inhibition of growth as compared to untreated control and iKIX1 and CAZ are the concentrations of iKIX1 and ketoconazole in combination that provide the same effect (greater than 50% inhibition of growth as compared to untreated control). A CI of less than 1 is taken to indicate synergy.

In the case of `N#CCC(=O)NNC(=S)Nc1ccc(Cl)c(Cl)c1` [iKIX1, 2-(2-Cyanoacetyl)-N-(3,4-dichlorophenyl)hydrazinecarbothioamide], the “combination effect of ketoconazole and iKIX1 on growth” value by setting is: (CgPDR1^L280F mutant) “synergistic growth inhibition”; (wild-type CgPDR1 strain) “additive”.
